Data taken from US6544989B2, “Benzazoles: benzoxazole, benzthiazole and benzimidazole derivatives” (Syngenta Limited, priority 1998, dated 2003).

Assays:
Conditions in all cases: 500 ppm by weight; mortality assessed usually between three and five days after treatment
Spodoptera exigua = experiment: Pesticidal test, Spodoptera exigua mortality
Protocol: (§1) The test procedure adopted with regard to each pest, except nematodes, was essentially the same and composed supporting a number of the pests on a medium which was usually a substrate, a host plant or a foodstuff on which the pests feed, and treating either or both the medium and the pests with a composition. Pest mortality was assessed usually between three and five days after treatment Knockdown of housefly (Musca domestica) was assessed 15 minutes after treatment

Heliothis virescens = tested on: Heliothis virescens
Protocol: as §1

Tetranychus urticae = tested on: Tetranychus urticae
Protocol: as §1

Musca domestica = tested on: Musca domestica
Protocol: as §1

Myzus persicae = experiment: Pesticidal test, Myzus persicae mortality
Protocol: as §1

## Cc1nsc(NC(=O)Cc2ccc3oc(C(C)C)nc3c2)c1Cl [8(A3)]
Spodoptera exigua
  LAPHEG = Spodoptera exigua, grading of mortality (score): 5 (5 indicates 40-79% mortality)
Heliothis virescens
  HELIVI = Heliothis virescens, grading of mortality (score): 5 (5 indicates 40-79% mortality)
Tetranychus urticae
  TETRUR = Tetranychus urticae, grading of mortality (score): 0 (0 indicates less than 40% mortality)
Musca domestica
  MUSCDO AK = Musca domestica (kill), grading of mortality (score): 9 (9 indicates 80-100% mortality)
Myzus persicae
  MYZUPE = Myzus persicae, grading of mortality (score): 5 (5 indicates 40-79% mortality)

## CC(C)=Cc1nc2cc(CC(=O)Nc3snc(C)c3Cl)ccc2o1 [46(A3)]
Spodoptera exigua
  LAPHEG = Spodoptera exigua, grading of mortality (score): 5 (5 indicates 40-79% mortality)
Heliothis virescens
  HELIVI = Heliothis virescens, grading of mortality (score): 0 (0 indicates less than 40% mortality)
Tetranychus urticae
  TETRUR = Tetranychus urticae, grading of mortality (score): 5 (5 indicates 40-79% mortality)
Musca domestica
  MUSCDO AK = Musca domestica (kill), grading of mortality (score): 5 (5 indicates 40-79% mortality)
Myzus persicae
  MYZUPE = Myzus persicae, grading of mortality (score): 9 (9 indicates 80-100% mortality)

## Cc1nsc(NC(=O)Cc2ccc3oc(CC(C)(C)C)nc3c2)c1Br [15(A4)]
Spodoptera exigua
  LAPHEG = Spodoptera exigua, grading of mortality (score): 9 (9 indicates 80-100% mortality)
Heliothis virescens
  HELIVI = Heliothis virescens, grading of mortality (score): 0 (0 indicates less than 40% mortality)
Tetranychus urticae
  TETRUR = Tetranychus urticae, grading of mortality (score): 9 (9 indicates 80-100% mortality)
Musca domestica
  MUSCDO AK = Musca domestica (kill), grading of mortality (score): 9 (9 indicates 80-100% mortality)
Myzus persicae
  MYZUPE = Myzus persicae, grading of mortality (score): 9 (9 indicates 80-100% mortality)

## CCCN(C(=O)Cc1ccc2oc(C)nc2c1)c1snc(C)c1Cl [2(D3)]
Spodoptera exigua
  LAPHEG = Spodoptera exigua, grading of mortality (score): 0 (0 indicates less than 40% mortality)
Heliothis virescens
  HELIVI = Heliothis virescens, grading of mortality (score): 0 (0 indicates less than 40% mortality)
Tetranychus urticae
  TETRUR = Tetranychus urticae, grading of mortality (score): 0 (0 indicates less than 40% mortality)
Musca domestica
  MUSCDO AK = Musca domestica (kill), grading of mortality (score): 0 (0 indicates less than 40% mortality)
Myzus persicae
  MYZUPE = Myzus persicae, grading of mortality (score): 0 (0 indicates less than 40% mortality)

## Cc1nsc(NC(=O)Cc2ccc3nc(C(C)(C)C)[nH]c3c2)c1Cl [9(A43)]
Heliothis virescens
  HELIVI = Heliothis virescens, grading of mortality (score): 0 (0 indicates less than 40% mortality)
Tetranychus urticae
  TETRUR = Tetranychus urticae, grading of mortality (score): 5 (5 indicates 40-79% mortality)
Musca domestica
  MUSCDO AK = Musca domestica (kill), grading of mortality (score): 0 (0 indicates less than 40% mortality)
Myzus persicae
  MYZUPE = Myzus persicae, grading of mortality (score): 9 (9 indicates 80-100% mortality)

## C=CCN(C(=O)Cc1ccc2oc(C)nc2c1)c1snc(C)c1Cl [2(E3)]
Spodoptera exigua
  LAPHEG = Spodoptera exigua, grading of mortality (score): 0 (0 indicates less than 40% mortality)
Heliothis virescens
  HELIVI = Heliothis virescens, grading of mortality (score): 0 (0 indicates less than 40% mortality)
Tetranychus urticae
  TETRUR = Tetranychus urticae, grading of mortality (score): 0 (0 indicates less than 40% mortality)
Musca domestica
  MUSCDO AK = Musca domestica (kill), grading of mortality (score): 0 (0 indicates less than 40% mortality)
Myzus persicae
  MYZUPE = Myzus persicae, grading of mortality (score): 0 (0 indicates less than 40% mortality)

## CCOCN(C(=O)Cc1ccc2oc(CC(C)(C)C)nc2c1)c1snc(C)c1Cl [15(L3)]
Spodoptera exigua
  LAPHEG = Spodoptera exigua, grading of mortality (score): 5 (5 indicates 40-79% mortality)
Heliothis virescens
  HELIVI = Heliothis virescens, grading of mortality (score): 9 (9 indicates 80-100% mortality)
Tetranychus urticae
  TETRUR = Tetranychus urticae, grading of mortality (score): 9 (9 indicates 80-100% mortality)
Musca domestica
  MUSCDO AK = Musca domestica (kill), grading of mortality (score): 9 (9 indicates 80-100% mortality)
Myzus persicae
  MYZUPE = Myzus persicae, grading of mortality (score): 9 (9 indicates 80-100% mortality)

## COc1nc2cc(CC(=O)Nc3snc(C)c3Cl)ccc2o1 [203(A3)]
Spodoptera exigua
  LAPHEG = Spodoptera exigua, grading of mortality (score): 0 (0 indicates less than 40% mortality)
Heliothis virescens
  HELIVI = Heliothis virescens, grading of mortality (score): 0 (0 indicates less than 40% mortality)
Tetranychus urticae
  TETRUR = Tetranychus urticae, grading of mortality (score): 0 (0 indicates less than 40% mortality)
Musca domestica
  MUSCDO AK = Musca domestica (kill), grading of mortality (score): 9 (9 indicates 80-100% mortality)
Myzus persicae
  MYZUPE = Myzus persicae, grading of mortality (score): 9 (9 indicates 80-100% mortality)

## CCOCN(C(=O)Cc1ccc2oc(C)nc2c1)c1snc(C)c1Cl [2(L3)]
Spodoptera exigua
  LAPHEG = Spodoptera exigua, grading of mortality (score): 5 (5 indicates 40-79% mortality)
Heliothis virescens
  HELIVI = Heliothis virescens, grading of mortality (score): 9 (9 indicates 80-100% mortality)
Tetranychus urticae
  TETRUR = Tetranychus urticae, grading of mortality (score): 9 (9 indicates 80-100% mortality)
Musca domestica
  MUSCDO AK = Musca domestica (kill), grading of mortality (score): 0 (0 indicates less than 40% mortality)
Myzus persicae
  MYZUPE = Myzus persicae, grading of mortality (score): 9 (9 indicates 80-100% mortality)

## Cc1nsc(NC(=O)Cc2ccc3oc(-c4sccc4Cl)nc3c2)c1Cl [331(A3)]
Spodoptera exigua
  LAPHEG = Spodoptera exigua, grading of mortality (score): 0 (0 indicates less than 40% mortality)
Heliothis virescens
  HELIVI = Heliothis virescens, grading of mortality (score): 0 (0 indicates less than 40% mortality)
Tetranychus urticae
  TETRUR = Tetranychus urticae, grading of mortality (score): 0 (0 indicates less than 40% mortality)
Musca domestica
  MUSCDO AK = Musca domestica (kill), grading of mortality (score): 0 (0 indicates less than 40% mortality)
Myzus persicae
  MYZUPE = Myzus persicae, grading of mortality (score): 0 (0 indicates less than 40% mortality)

## Cc1nsc(N(C(=O)Cc2ccc3oc(CC(C)(C)C)nc3c2)C(C)C)c1Cl [15(N3)]
Heliothis virescens
  HELIVI = Heliothis virescens, grading of mortality (score): 0 (0 indicates less than 40% mortality)
Tetranychus urticae
  TETRUR = Tetranychus urticae, grading of mortality (score): 0 (0 indicates less than 40% mortality)
Musca domestica
  MUSCDO AK = Musca domestica (kill), grading of mortality (score): 0 (0 indicates less than 40% mortality)
Myzus persicae
  MYZUPE = Myzus persicae, grading of mortality (score): 0 (0 indicates less than 40% mortality)

## Cc1nsc(NC(=O)Cc2ccc3oc(-c4ccncc4)nc3c2)c1Cl [339(A3)]
Heliothis virescens
  HELIVI = Heliothis virescens, grading of mortality (score): 0 (0 indicates less than 40% mortality)
Tetranychus urticae
  TETRUR = Tetranychus urticae, grading of mortality (score): 9 (9 indicates 80-100% mortality)
Musca domestica
  MUSCDO AK = Musca domestica (kill), grading of mortality (score): 0 (0 indicates less than 40% mortality)
Myzus persicae
  MYZUPE = Myzus persicae, grading of mortality (score): 0 (0 indicates less than 40% mortality)

## Cc1nsc(NC(=O)Cc2ccc3oc(CC#N)nc3c2)c1Cl [113(A3)]
Heliothis virescens
  HELIVI = Heliothis virescens, grading of mortality (score): 0 (0 indicates less than 40% mortality)
Tetranychus urticae
  TETRUR = Tetranychus urticae, grading of mortality (score): 9 (9 indicates 80-100% mortality)
Musca domestica
  MUSCDO AK = Musca domestica (kill), grading of mortality (score): 0 (0 indicates less than 40% mortality)
Myzus persicae
  MYZUPE = Myzus persicae, grading of mortality (score): 0 (0 indicates less than 40% mortality)

## Cc1nsc(NC(=O)Cc2ccc3oc(C4CCCCC4)nc3c2)c1Cl [35(A3)]
Heliothis virescens
  HELIVI = Heliothis virescens, grading of mortality (score): 5 (5 indicates 40-79% mortality)
Tetranychus urticae
  TETRUR = Tetranychus urticae, grading of mortality (score): 9 (9 indicates 80-100% mortality)
Musca domestica
  MUSCDO AK = Musca domestica (kill), grading of mortality (score): 0 (0 indicates less than 40% mortality)
Myzus persicae
  MYZUPE = Myzus persicae, grading of mortality (score): 9 (9 indicates 80-100% mortality)

## Cc1nsc(NC(=O)Cc2ccc3oc(C(F)(F)C(F)(F)C(F)(F)F)nc3c2)c1Cl [80(A3)]
Heliothis virescens
  HELIVI = Heliothis virescens, grading of mortality (score): 0 (0 indicates less than 40% mortality)
Tetranychus urticae
  TETRUR = Tetranychus urticae, grading of mortality (score): 0 (0 indicates less than 40% mortality)
Musca domestica
  MUSCDO AK = Musca domestica (kill), grading of mortality (score): 0 (0 indicates less than 40% mortality)
Myzus persicae
  MYZUPE = Myzus persicae, grading of mortality (score): 0 (0 indicates less than 40% mortality)
